Reference: PubChem BioAssay AID588591 (National Center for Advancing Translational Sciences (NCATS), 2011)
Hit rate of the full screen: of about 390,000 compounds, about 4,700 (1.2%) were called active. Inconclusive means that the source gave no clear call. Such entries were picked first, then a sample of the others. Calls come from the whole dose curve; as a rule, active = well fitted inhibition curve with a large enough effect; inconclusive = small, poorly fitted or top-dose-only effect, or another doubt; inactive = no such curve, though single readings can be large or run the other way. Potencies of inconclusive entries are doubtful fits and often do not repeat.
Potency is the fitted concentration of half-maximal effect; tags give direction and shape of the fitted curve.

What follows are compounds tested against DNA polymerase eta (Homo sapiens) (UniProt Q9Y253) (assay: qHTS for Inhibitors of Polymerase Eta). Conditions: recombinant Pol eta, fluorescent DNA replication assay; series mostly up to 114 µM.
UniProt Q9Y253, sequence (Q9Y253 whole entry, looked up): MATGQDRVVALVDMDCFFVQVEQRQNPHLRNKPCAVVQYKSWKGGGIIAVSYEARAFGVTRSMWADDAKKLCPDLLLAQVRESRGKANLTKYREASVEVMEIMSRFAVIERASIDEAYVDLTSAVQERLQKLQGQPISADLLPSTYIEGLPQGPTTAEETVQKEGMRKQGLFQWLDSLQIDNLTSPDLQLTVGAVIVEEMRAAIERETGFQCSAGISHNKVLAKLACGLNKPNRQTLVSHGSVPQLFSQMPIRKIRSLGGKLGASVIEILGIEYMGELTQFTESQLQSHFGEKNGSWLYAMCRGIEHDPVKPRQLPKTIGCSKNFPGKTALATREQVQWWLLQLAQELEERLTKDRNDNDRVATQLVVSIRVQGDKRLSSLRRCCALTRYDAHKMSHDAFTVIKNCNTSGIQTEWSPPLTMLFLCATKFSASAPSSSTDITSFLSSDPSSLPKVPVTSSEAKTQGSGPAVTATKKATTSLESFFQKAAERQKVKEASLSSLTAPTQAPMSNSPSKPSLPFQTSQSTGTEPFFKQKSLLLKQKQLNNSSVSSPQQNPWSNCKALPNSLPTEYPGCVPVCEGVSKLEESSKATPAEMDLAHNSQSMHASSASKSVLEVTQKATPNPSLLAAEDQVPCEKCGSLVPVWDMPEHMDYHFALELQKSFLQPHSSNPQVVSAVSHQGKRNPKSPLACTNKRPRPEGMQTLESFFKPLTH
Procedure, shortened: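 Fluorescent replication assay: 50 nM final substrate added after a 15 min room-temperature compound preincubation with 10 nM enzyme. Signal taken at 0 min and again at 10 min.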
For `CC(C)(C)c1ccc(C(=O)c2c[nH]c(C(=O)NCc3cccs3)c2)cc1`, the Potency was inconclusive: 12.6 µM [inhibitor, partial curve, poor fit].
For `COC(=O)CN1C(=O)S/C(=C/c2ccc(N3CCCCC3)o2)C1=O`, the Potency was inconclusive: 79.4 µM [inhibitor, partial curve, poor fit].
With `NC1=NC(=O)/C(=C/c2ccccc2OS(=O)(=O)c2ccc3ccccc3c2)S1` the Potency was inconclusive: 20 µM [inhibitor, full curve, poor fit].
For `CCc1nc(SCC(=O)Nc2cc(C)on2)c2c(C)c(C)sc2n1`, the Potency was inconclusive: 28.2 µM [inhibitor, single point].
`CCC(NC(=O)CCc1c(C)c2cc3c(-c4ccccc4)coc3cc2oc1=O)C(=O)O` (stereo unspecified) was tested, and the Potency was inconclusive: 56.2 µM [inhibitor, partial curve].
`Cc1ccc(/C=C(/C#N)c2nc(CCN3C(=O)c4ccccc4C3=O)cs2)cc1` was tested, and the Potency was inconclusive: 12.6 µM [inhibitor, partial curve].
`COc1cc(C(=S)N2CCOCC2)ccc1OC(=O)c1cc([N+](=O)[O-])c(C)c([N+](=O)[O-])c1` was tested, and the Potency was inconclusive: 25.1 µM [inhibitor, partial curve, poor fit].
For `CCC1=NN2C(=N)/C(=C\c3cccn3-c3ccc(C)c(C)c3)C(=O)N=C2S1`, the Potency was inconclusive: 17.8 µM [inhibitor, partial curve, poor fit].
`CC1CCc2c(sc(NC(=O)c3cccn3C)c2C(N)=O)C1` (stereo unspecified) was tested, and the Potency was active: 31.6 µM.
In the case of `COc1ccc(NC(=O)CCNC(=O)c2ccc([N+](=O)[O-])cc2)cc1S(=O)(=O)N1CCOCC1`, the Potency is reported as inconclusive: 25.1 µM [inhibitor, partial curve, poor fit].
In the case of `Cc1ccc(S(=O)(=O)N2C[C@H]3N(C(=O)OC(C)C)N(C(=O)OC(C)C)C[C@H](OC(=O)NCC4CCCCC4)[C@@]3(O)C2)cc1`, the Potency is reported as inconclusive: 22.4 µM [inhibitor, partial curve, poor fit].
For `CCOc1ccc(C(NC(=O)/C=C/c2ccco2)c2ccc(OC)c(OC)c2)cc1` (stereo unspecified), the Potency was inconclusive: 39.8 µM [inhibitor, single point].
`CN(Cc1ccco1)C(=O)c1c[nH]c2ccc(S(=O)(=O)Nc3ccc4c(c3)OCCO4)cc2c1=O` was tested, and the Potency was inconclusive: 39.8 µM [inhibitor, single point].
For `CC(Sc1ncc(S(=O)(=O)c2ccc(C(C)C)cc2)c(N)n1)C(=O)Nc1ccccc1` (stereo unspecified), the Potency was “inactive”.
In the case of `O=C(NC1CC(=O)N(c2ccccc2)C1)C1CCCC1` (stereo unspecified), the Potency is reported as “inactive”.
For `O=C(CSc1ccc(Cl)cc1)c1ccco1`, the Potency was active: 22.4 µM.
